The source of these data is the supplement of paper PMC9446081.

In all, about 39,000 compounds went through this assay and about 220 (0.56%) showed activity. The list shows a part of the results.
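Further: static incubation at 37 °C against the wild-type strain, values averaged over two biological replicates.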

For the test, the system named is Escherichia coli K-12 BW25113. The test is described as follows: relative growth (OD600 normalised to plate interquartile mean) (fraction); higher = less growth inhibition, active = 0.2 or less. The following applies: 50 µM; LB; incubation time: overnight (16-24 h).
With `C[C@@H]1CCCCO[C@@H](CN(C)S(=O)(=O)c2cccs2)[C@@H](C)CN([C@@H](C)CO)C(=O)c2cc(NC(=O)Cc3ccccc3)ccc2O1`, the relative growth was inactive: 1.02.

In the case of `O=C(C[C@H]1C[C@H]2c3cc(NS(=O)(=O)c4ccc(F)cc4)ccc3O[C@H]2[C@@H](CO)O1)NCc1ccc(Oc2ccccc2)cc1`, the relative growth was inactive: 1.

As to `CCCC(=O)Nc1ccc2c(c1)OC[C@H](C)N(S(=O)(=O)c1cn(C)cn1)C[C@H](C)[C@@H](OC)CN(C)C2=O`, the relative growth is inactive: 1.

For the compound `COc1ccc(NC(=O)N(C)C[C@@H]2Oc3ccc(NC(=O)Cn4cnnn4)cc3CC(=O)N([C@H](C)CO)C[C@@H]2C)cc1`, the relative growth was inactive: 0.932.

Turning to `CCc1nc2ccc(C(=O)NCc3ccc4c(c3)OCO4)cn2c1N(CC)Cc1cccc(Br)c1`, the relative growth is inactive: 1.02.

For the compound `Cc1cc(C)c(S(=O)(=O)Nc2cc([C@@H](C(=O)OC(C)C)C(=O)C(F)(F)F)c(O)c3ccccc23)c(C)c1`, the relative growth is inactive: 0.962.

Turning to `C[C@H]1CCCCO[C@H](CN(C)C(=O)c2ccccc2)[C@@H](C)CN([C@@H](C)CO)C(=O)c2cc(NC(=O)NC3CCCCC3)ccc2O1`, the relative growth is inactive: 1.01.

`COc1ccc(S(=O)(=O)Nc2ccc3c(c2)C(=O)N([C@@H](C)CO)C[C@@H](C)[C@@H](CN(C)CC2CC2)O3)cc1`: the relative growth was inactive: 1.02.

For the compound `C[C@@H]1CN([C@@H](C)CO)C(=O)c2cc(NS(=O)(=O)c3cn(C)cn3)ccc2O[C@H]1CN(C)S(=O)(=O)c1cn(C)cn1`, the relative growth was inactive: 0.995.

For `O=C(C[C@H]1CC[C@H]2[C@@H](COC[C@H](O)CN2C(=O)c2cccnc2)O1)NCC1CC1`, the relative growth is inactive: 1.01.

As to `Cc1noc(C)c1S(=O)(=O)Nc1ccc2c(c1)CC(=O)N([C@@H](C)CO)C[C@H](C)[C@H](CN(C)S(=O)(=O)c1ccccc1)O2`, the relative growth was inactive: 0.97.

`CCCNC(=O)NS(=O)(=O)c1ccc(Cl)cc1`: the relative growth was inactive: 1.01.

Regarding `Cn1c(=O)n(C)c2cc(CN)ccc21`, the relative growth was inactive: 1.

`CCCN(C)C[C@H]1Oc2cc(C#Cc3cccc(OC)c3)ccc2S(=O)(=O)N([C@H](C)CO)C[C@H]1C`: the relative growth was inactive: 1.01.

`Cc1ccc(S(=O)(=O)N(C)C[C@@H]2Oc3c(NC(=O)Nc4ccc(C(F)(F)F)cc4)cccc3C(=O)N([C@H](C)CO)C[C@H]2C)cc1`: the relative growth is inactive: 0.761.

Take `C[C@H](CO)N1C[C@H](C)[C@H](CN(C)Cc2ccc(Cl)c(Cl)c2)OCCCC[C@H](C)Oc2ccc(NC(=O)Nc3ccc(C(F)(F)F)cc3)cc2C1=O`: the relative growth was inactive: 1.08.

Turning to `C[C@@H]1CN([C@@H](C)CO)C(=O)c2cc(C#CC3(O)CCCC3)cnc2O[C@H]1CN(C)C(=O)C1CCCCC1`, the relative growth is inactive: 0.975.

On to `Cc1ccc(S(=O)(=O)Nc2cccc3c2O[C@H](CN(C)CC2CC2)[C@H](C)CN([C@@H](C)CO)C3=O)cc1`, for which the relative growth is inactive: 1.

In the case of `Cc1ccc(S(=O)(=O)Nc2cccc3c2O[C@H](CN(C)Cc2ccc(Cl)c(Cl)c2)[C@H](C)CN([C@H](C)CO)C3=O)cc1`, the relative growth was inactive: 0.986.

Take `C[C@H](O)C#Cc1ccc2c(c1)O[C@H](CN(C)C(=O)C1CCCCC1)[C@@H](C)CN([C@@H](C)CO)S2(=O)=O`: the relative growth is inactive: 0.977.

For the compound `Cc1ccc(S(=O)(=O)N[C@@H]2CC[C@H](CC(=O)N3CCC(Cc4ccccc4)CC3)O[C@@H]2CO)cc1`, the relative growth was inactive: 0.871.

Take `C[C@@H]1CCCCO[C@@H](CN(C)C(=O)Nc2ccccc2)[C@@H](C)CN([C@H](C)CO)C(=O)c2cc(NC(=O)Nc3ccc(C(F)(F)F)cc3)ccc2O1`: the relative growth was inactive: 1.02.

Regarding `Nc1ccccc1Nc1ccccc1`, the relative growth was inactive: 0.974.

With `COc1ccc(CN(C)C[C@@H]2OCCCC[C@@H](C)Oc3ccc(NC(=O)c4ccccc4)cc3C(=O)N([C@H](C)CO)C[C@@H]2C)cc1`, the relative growth is inactive: 0.989.

For the compound `C[C@H](CO)N1C[C@H](C)[C@@H](CN(C)C(=O)Nc2ccc(F)cc2)Oc2c(NC(=O)c3ccc(-c4nccs4)cc3)cccc2C1=O`, the relative growth was inactive: 0.982.

Consider `C[C@H]1CN([C@@H](C)CO)S(=O)(=O)c2ccc(C#Cc3ccc(F)cc3)cc2O[C@@H]1CN(C)C(=O)c1ccccn1`, for which the relative growth was inactive: 1.03.

As to `COc1ccnc(C#N)c1`, the relative growth is inactive: 0.994.

On to `O=C(C[C@H]1CC[C@H](NC(=O)c2cccnc2)[C@H](CO)O1)NCCN1CCCCC1`, for which the relative growth was inactive: 1.04.

For the compound `Cc1ccc(S(=O)(=O)N(C)C[C@@H]2OCCCC[C@H](C)Oc3ccc(NC(=O)Nc4ccc(F)cc4)cc3C(=O)N([C@H](C)CO)C[C@H]2C)cc1`, the relative growth is inactive: 0.983.

Consider `C[C@H]1CN([C@@H](C)CO)C(=O)c2cc(NC(=O)Cn3cnnn3)ccc2O[C@@H]1CN(C)Cc1ccc(C(F)(F)F)cc1`, for which the relative growth is inactive: 0.975.

Regarding `O=C(C[C@H]1CC[C@H]2[C@@H](COC[C@H](O)CN2S(=O)(=O)c2ccccc2)O1)NCCN1CCCC1`, the relative growth is inactive: 0.996.

Regarding `Cc1noc(C)c1S(=O)(=O)Nc1ccc2c(c1)C(=O)N([C@H](C)CO)C[C@@H](C)[C@@H](CN(C)CC1CCCCC1)OCCCC[C@H](C)O2`, the relative growth is inactive: 1.01.

Turning to `Cc1noc(C)c1S(=O)(=O)Nc1ccc2c(c1)C(=O)N([C@@H](C)CO)C[C@@H](C)[C@H](CN(C)Cc1ccccc1)OCCCC[C@@H](C)O2`, the relative growth is inactive: 1.01.

`COCCOC(=O)N1C(=O)[C@@]2(c3cc(C#CCCO)ccc31)[C@H](c1ccccc1OCCO)N1[C@H](c3ccccc3)[C@H](c3ccccc3)OC(=O)[C@H]1[C@@H]2C(=O)N1CCc2cc(OC)c(OC)cc2C1`: the relative growth was inactive: 1.03.

For `COc1ccccc1S(=O)(=O)N(C)C[C@H]1OCc2cnnn2CCCC(=O)N([C@H](C)CO)C[C@H]1C`, the relative growth is inactive: 0.995.

Take `C[C@H](CO)N1C[C@H](C)[C@H](CN(C)C(=O)C2CCCCC2)Oc2cc(Br)ccc2S1(=O)=O`: the relative growth was inactive: 1.

In the case of `Cc1noc(C)c1NC(=O)Nc1ccc2c(c1)C(=O)N([C@@H](C)CO)C[C@@H](C)[C@H](CN(C)C(=O)Nc1ccc(F)cc1)OCCCC[C@@H](C)O2`, the relative growth was inactive: 1.02.

With `C[C@H](O)C#Cc1ccc2c(c1)O[C@H](CN(C)C)[C@H](C)CN([C@@H](C)CO)S2(=O)=O`, the relative growth is inactive: 0.972.

For `O=C(NCc1ccccn1)C1CCNCC1`, the relative growth was inactive: 1.02.

For `COC(=O)[C@@H](NC(=O)Cn1cc(C(=O)NO)nn1)c1ccccc1`, the relative growth is inactive: 1.04.

On to `C[C@@H](CN1CCCCC1)C(=O)NN`, for which the relative growth was inactive: 0.996.

Turning to `COCC(=O)N1CC(=O)N2[C@H](C1)[C@@H](c1ccc(C#Cc3cccnc3)cc1)[C@@H]2CO`, the relative growth was inactive: 1.02.

Consider `C[C@@H]1CN([C@@H](C)CO)C(=O)Cc2cc(NC(=O)c3ccncc3)ccc2O[C@@H]1CN(C)C(=O)NC1CCCCC1`, for which the relative growth is inactive: 0.958.

`C[C@@H]1CN([C@@H](C)CO)C(=O)c2cc(NC(=O)Nc3ccccc3)ccc2O[C@@H]1CN(C)S(C)(=O)=O`: the relative growth is inactive: 0.999.

For `COc1ccc(NC(=O)Nc2cccc3c2O[C@@H](CN(C)Cc2ccc(C(=O)Nc4ccccc4N)cc2)[C@@H](C)CN([C@@H](C)CO)C3=O)cc1`, the relative growth was inactive: 1.01.

Regarding `COC(=O)C1=C2CC[C@H](CO)NC(=O)N[C@H](Cc3ccccc3)C(=O)NCc3cn(nn3)C[C@@H](Cc3ccccc3)NC(=O)c3oc(c(C(=O)OC)c3C(=O)OC)CC[C@H](CO)NC(=O)N[C@H](Cc3ccccc3)C(=O)NCc3cn(nn3)C[C@@H](Cc3ccccc3)NC(=O)C(=C1C(=O)OC)O2`, the relative growth was inactive: 0.976.

Regarding `COc1ccc(NC(=O)Nc2ccc3c(c2)C(=O)N([C@@H](C)CO)C[C@@H](C)[C@H](CN(C)C(=O)C2CCCCC2)OCCCC[C@@H](C)O3)cc1`, the relative growth was inactive: 1.02.

As to `C[C@@H](O)C#Cc1ccc2c(c1)O[C@@H](CN(C)C(=O)Cc1ccccn1)[C@@H](C)CN([C@@H](C)CO)S2(=O)=O`, the relative growth is inactive: 1.

For the compound `CC(=O)OC1CCC2(C)C(=CC=C3C2CCC2(C)C3CCC2C(C)C=CC(C)C(C)C)C1(C)C` (centres undefined), the relative growth is inactive: 1.08.

Take `CCOC(=O)c1cnn2c(=O)cc(C)[nH]c12`: the relative growth was inactive: 0.986.

Turning to `CC(C)c1onc(-c2c(Cl)cccc2Cl)c1COc1ccc(/C=C/c2cccc(C(=O)O)c2)c(Cl)c1`, the relative growth is inactive: 0.866.

Regarding `Cn1cnc(CCNC(=O)C[C@H]2CC[C@H]3[C@@H](COC[C@@H](O)CN3C(=O)C3CC3)O2)c1`, the relative growth is inactive: 1.

Consider `COc1ccc(S(=O)(=O)N(C)C[C@H]2OCCCC[C@H](C)Oc3ccc(NC(=O)Nc4ccc(C(F)(F)F)cc4)cc3C(=O)N([C@H](C)CO)C[C@@H]2C)cc1`, for which the relative growth was inactive: 1.05.

As to `CNC(=O)C[C@H]1CC[C@H]2[C@@H](COC[C@@H](O)CN2C(=O)c2ccccn2)O1`, the relative growth was inactive: 1.01.

For `Cc1noc(C)c1S(=O)(=O)Nc1ccc2c(c1)CC(=O)N([C@@H](C)CO)C[C@H](C)[C@H](CN(C)S(=O)(=O)c1ccc(Cl)cc1)O2`, the relative growth is inactive: 1.01.

For the compound `Cc1noc(C)c1S(=O)(=O)N(C)C[C@H]1Oc2ccc(NC(=O)Cc3ccccc3)cc2CC(=O)N([C@@H](C)CO)C[C@H]1C`, the relative growth is inactive: 0.989.

Take `C[C@@H]1CN([C@H](C)CO)C(=O)Cc2cc(NS(=O)(=O)c3cn(C)cn3)ccc2O[C@@H]1CN(C)Cc1ccc2c(c1)OCO2`: the relative growth was inactive: 0.979.

Consider `C[C@@H]1CCCCO[C@H](CN(C)C(=O)Nc2ccc(C(F)(F)F)cc2)[C@H](C)CN([C@H](C)CO)C(=O)c2cc(NC(=O)c3ccccc3)ccc2O1`, for which the relative growth is inactive: 0.989.

`COc1ccc(CN(C)C[C@H]2OCCCC[C@@H](C)Oc3ccc(NS(=O)(=O)c4ccc(OC)cc4)cc3C(=O)N([C@H](C)CO)C[C@H]2C)cc1`: the relative growth was inactive: 1.03.
